# Results: the supplement of paper PMC8728848
# The other results are listed elsewhere or left out.
# B1: CLECb-Precomplexed (Mus musculus), P43025 (protein)
# chain: MAKNGLVLCILVVSLLLDQTDGYPSRMKARKHSKRRVKAKDDDLKSQVEKLWREVNALKEMQALQTVCLRGTKVHKKCYLASEGLKHYHEANEDCISKGGTLVVPRNSDEINALRDYGKRSLPGVNDFWLGINDMVTEGKFLDVHGFAVSFLNWDRAQPSGGKRENCVLFSQSAQGKWSDEACRSSKRYICEFIIPTRTRPLEQKLISEEDLAANDILDYKDDDDKV
# How the values were obtained:
# Assay in all cases: glycan array binding signal (z-score within array); higher = stronger binding
# Details in all cases: glycan notation: IUPAC condensed, linker removed
# [1] = target: Neu5Ac(a2-6)Gal(b1-4)GlcNAc(b1-3)Gal(b1-4)GlcNAc(b1-3)Gal(b1-4)GlcNAc(b1-2)Man(a1-3)[Neu5Ac(a2-6)Gal(b1-4)GlcNAc(b1-3)Gal(b1-4)GlcNAc(b1-3)Gal(b1-4)GlcNAc(b1-2)Man(a1-6)]GalNAc
# Method in brief: (§1)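 From the Consortium for Functional Glycomics database, 3228 arrays were curated, keeping only those whose protein sequence was available. Binding is given as a within-array Z-score averaged across arrays sharing a protein sequence and across linkers. Negative Z-scores can be read as non-binding.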
# [2] = target: Neu5Ac(a2-6)Gal(b1-4)GlcNAc(b1-3)Gal(b1-4)GlcNAc(b1-3)GalNAc
# Method in brief: as §1
# [3] = target: Neu5Ac(a2-6)Gal(b1-4)GlcNAc(b1-3)Gal(b1-4)GlcNAc(b1-3)[Neu5Ac(a2-6)Gal(b1-4)GlcNAc(b1-3)Gal(b1-4)GlcNAc(b1-6)]GalNAc
# Method in brief: as §1
# [4] = target: Neu5Ac(a2-6)Gal(b1-4)GlcNAc(b1-3)Gal(b1-4)GlcNAc(b1-6)[Gal(b1-3)]GalNAc
# Method in brief: as §1
# [5] = target: Neu5Ac(a2-6)Gal(b1-4)GlcNAc(b1-3)Gal(b1-4)[Fuc(a1-3)]GlcNAc(b1-3)Gal(b1-4)[Fuc(a1-3)]GlcNAc
# Method in brief: as §1
# [6] = target: Neu5Ac(a2-6)Gal(b1-4)GlcNAc(b1-3)GalNAc
# Method in brief: as §1
# [7] = target: Neu5Ac(a2-6)Gal(b1-4)GlcNAc(b1-3)[Neu5Ac(a2-6)Gal(b1-4)GlcNAc(b1-6)]GalNAc
# Method in brief: as §1
# [8] = target: Neu5Ac(a2-6)Gal(b1-4)GlcNAc(b1-6)GalNAc
# Method in brief: as §1
# [9] = target: Neu5Ac(a2-6)Gal(b1-4)GlcNAc(b1-6)[Gal(b1-3)GlcNAc(b1-3)]Gal(b1-4)Glc
# Method in brief: as §1
# [10] = target: Neu5Ac(a2-6)Gal(b1-4)GlcNAc(b1-6)[Gal(b1-3)]GalNAc
# Method in brief: as §1
# [11] = target: Neu5Ac(a2-6)Gal(b1-4)GlcNAc6S
# Method in brief: as §1
# Neu5Ac(a2-6)GalNAc = target: Neu5Ac(a2-6)GalNAc
# Method in brief: as §1
# [12] = target: Neu5Ac(a2-6)GalNAc(b1-4)GlcNAc
# Method in brief: as §1
# [13] = target: Neu5Ac(a2-6)GalNAc(b1-4)GlcNAc6S
# Method in brief: as §1
# [14] = target: Neu5Ac(a2-6)GlcNAc(b1-4)GlcNAc
# Method in brief: as §1
# [15] = target: Neu5Ac(a2-6)GlcNAc(b1-4)GlcNAc(b1-4)GlcNAc
# Method in brief: as §1
# Neu5Ac(a2-8)Neu5Ac = target: Neu5Ac(a2-8)Neu5Ac
# Method in brief: as §1
# [16] = target: Neu5Ac(a2-8)Neu5Ac(a2-3)Gal(b1-3)GalNAc(b1-4)[Neu5Ac(a2-3)]Gal(b1-4)Glc
# Method in brief: as §1
# [17] = target: Neu5Ac(a2-8)Neu5Ac(a2-3)Gal(b1-3)GalNAc(b1-4)[Neu5Ac(a2-8)Neu5Ac(a2-3)]Gal(b1-4)Glc
# Method in brief: as §1
# [18] = target: Neu5Ac(a2-8)Neu5Ac(a2-3)Gal(b1-4)Glc
# Method in brief: as §1
# [19] = target: Neu5Ac(a2-8)Neu5Ac(a2-3)Gal(b1-4)GlcNAc
# Method in brief: as §1
# [20] = target: Neu5Ac(a2-8)Neu5Ac(a2-3)[Gal(b1-3)GalNAc(b1-4)]Gal(b1-4)Glc
# Method in brief: as §1
# [21] = target: Neu5Ac(a2-8)Neu5Ac(a2-3)[GalNAc(b1-4)]Gal(b1-4)Glc
# Method in brief: as §1
# [22] = target: Neu5Ac(a2-8)Neu5Ac(a2-8)Neu5Ac
# Method in brief: as §1
# [23] = target: Neu5Ac(a2-8)Neu5Ac(a2-8)Neu5Ac(a2-3)Gal(b1-4)Glc
# Method in brief: as §1
# [24] = target: Neu5Ac(a2-8)Neu5Ac(a2-8)Neu5Ac(a2-3)[Gal(b1-3)GalNAc(b1-4)]Gal(b1-4)Glc
# Method in brief: as §1
# [25] = target: Neu5Ac(a2-8)Neu5Ac(a2-8)Neu5Ac(a2-3)[GalNAc(b1-4)]Gal(b1-4)Glc
# Method in brief: as §1
# [26] = target: Neu5Ac(a2-8)Neu5Ac(a2-8)Neu5Ac(a2-8)Neu5Ac(a2-3)[GalNAc(b1-4)]Gal(b1-4)Glc
# Method in brief: as §1
# [27] = target: Neu5Ac(a2-8)Neu5Gc(a2-3)Gal(b1-4)GlcNAc
# Method in brief: as §1
# [28] = target: Neu5Ac(b2-6)Gal(b1-4)GlcNAc
# Method in brief: as §1
# Neu5Ac(b2-6)GalNAc = target: Neu5Ac(b2-6)GalNAc
# Method in brief: as §1
# [29] = target: Neu5Ac9Ac(a2-3)Gal(b1-4)GlcNAc
# Method in brief: as §1
# [30] = target: Neu5Ac9Ac(a2-6)Gal(b1-4)GlcNAc
# Method in brief: as §1
# [31] = target: Neu5Gc(a2-3)Gal(b1-3)GlcNAc
# Method in brief: as §1
# [32] = target: Neu5Gc(a2-3)Gal(b1-3)[Fuc(a1-4)]GlcNAc
# Method in brief: as §1
# Neu5Gc(a2-3)Gal(b1-4)Glc = target: Neu5Gc(a2-3)Gal(b1-4)Glc
# Method in brief: as §1
# [33] = target: Neu5Gc(a2-3)Gal(b1-4)GlcNAc
# Method in brief: as §1
# [34] = target: Neu5Gc(a2-3)Gal(b1-4)GlcNAc(b1-3)Gal(b1-4)GlcNAc(b1-2)Man(a1-3)[Neu5Gc(a2-3)Gal(b1-4)GlcNAc(b1-3)Gal(b1-4)GlcNAc(b1-2)Man(a1-6)]Man(b1-4)GlcNAc(b1-4)GlcNAc
# Method in brief: as §1
# [35] = target: Neu5Gc(a2-3)Gal(b1-4)[Fuc(a1-3)]GlcNAc
# Method in brief: as §1
# [36] = target: Neu5Gc(a2-6)Gal(b1-4)GlcNAc
# Method in brief: as §1
# Neu5Gc(a2-6)GalNAc = target: Neu5Gc(a2-6)GalNAc
# Method in brief: as §1
# [37] = target: Neu5Gc(a2-8)Neu5Ac(a2-3)Gal(b1-4)GlcNAc
# Method in brief: as §1
# [38] = target: Neu5Gc(a2-8)Neu5Gc(a2-3)Gal(b1-4)GlcNAc
# Method in brief: as §1
# [39] = target: Neu5Gc(a2-8)Neu5Gc(a2-3)Gal(b1-4)GlcNAc(b1-3)Gal(b1-4)GlcNAc
# Method in brief: as §1
# [40] = target: Neu5Gc(a2-8)Neu5Gc(a2-6)Gal(b1-4)GlcNAc
# Method in brief: as §1
binder,measurement,setting,value
B1,glycan array binding signal (z-score),[1],3.49
same,glycan array binding signal (z-score),[2],-0.285
same,glycan array binding signal (z-score),[3],-0.368
same,glycan array binding signal (z-score),[4],-0.339
same,glycan array binding signal (z-score),[5],-0.549
same,glycan array binding signal (z-score),[6],1.18
same,glycan array binding signal (z-score),[7],-0.64
same,glycan array binding signal (z-score),[8],-0.372
same,glycan array binding signal (z-score),[9],-0.204
same,glycan array binding signal (z-score),[10],-0.007
same,glycan array binding signal (z-score),[11],0.146
same,glycan array binding signal (z-score),Neu5Ac(a2-6)GalNAc,-0.073
same,glycan array binding signal (z-score),[12],0.101
same,glycan array binding signal (z-score),[13],0.238
same,glycan array binding signal (z-score),[14],-0.392
same,glycan array binding signal (z-score),[15],-0.456
same,glycan array binding signal (z-score),Neu5Ac(a2-8)Neu5Ac,-0.545
same,glycan array binding signal (z-score),[16],0.041
same,glycan array binding signal (z-score),[17],-0.594
same,glycan array binding signal (z-score),[18],0.106
same,glycan array binding signal (z-score),[19],-0.324
same,glycan array binding signal (z-score),[20],-0.221
same,glycan array binding signal (z-score),[21],1.22
same,glycan array binding signal (z-score),[22],-0.333
same,glycan array binding signal (z-score),[23],0.021
same,glycan array binding signal (z-score),[24],-0.476
same,glycan array binding signal (z-score),[25],-0.473
same,glycan array binding signal (z-score),[26],-0.152
same,glycan array binding signal (z-score),[27],-0.143
same,glycan array binding signal (z-score),[28],-0.315
same,glycan array binding signal (z-score),Neu5Ac(b2-6)GalNAc,-0.514
same,glycan array binding signal (z-score),[29],-0.451
same,glycan array binding signal (z-score),[30],-0.001
same,glycan array binding signal (z-score),[31],-0.28
same,glycan array binding signal (z-score),[32],-0.096
same,glycan array binding signal (z-score),Neu5Gc(a2-3)Gal(b1-4)Glc,-0.211
same,glycan array binding signal (z-score),[33],-0.188
same,glycan array binding signal (z-score),[34],0.148
same,glycan array binding signal (z-score),[35],-0.483
same,glycan array binding signal (z-score),[36],-0.412
same,glycan array binding signal (z-score),Neu5Gc(a2-6)GalNAc,-0.159
same,glycan array binding signal (z-score),[37],-0.13
same,glycan array binding signal (z-score),[38],-0.162
same,glycan array binding signal (z-score),[39],-0.347
same,glycan array binding signal (z-score),[40],-0.456
